In the supplement of paper PMC10369915:
This is one part of the list. No stated cut-off is given here; in the data, active = 3.2 or more and inactive = the rest. Most of these values are background signal.

Legend:
Test in all cases: enrichment score (SH2-bound / input frequency) (ratio); bacterial display of known human phosphotyrosine sites (pTyr-Var adds point mutants) read by sequencing; higher = stronger binding; tyrosines were phosphorylated by kinases first
Conditions in all cases: peptide library: pTyr-Var
SHP2 C-SH2 domain E139D = molecular target: SHP2 C-SH2 domain E139D
[1] = molecular target: SHP2 C-SH2 domain wild-type
SHP2 N-SH2 domain L43F = molecular target: SHP2 N-SH2 domain L43F
SHP2 N-SH2 domain T42A = molecular target: SHP2 N-SH2 domain T42A
SHP2 N-SH2 domain T52S = molecular target: SHP2 N-SH2 domain T52S
[2] = molecular target: SHP2 N-SH2 domain wild-type

Measured: enrichment score
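Further: displayed peptides selected on beads carrying the immobilized SH2 domain, with library peptides lacking any tyrosine serving as negative controls.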

LEDEVCAQKMK [TPM2_Y261_Y261C]
inactive: SHP2 C-SH2 domain E139D 1.07 | [1] 0.533 | SHP2 N-SH2 domain L43F 0.89 | SHP2 N-SH2 domain T42A 0.555 | SHP2 N-SH2 domain T52S 0.452 | [2] 0.659

EADRKYEEVAR [TPM3_Y163]
inactive: SHP2 C-SH2 domain E139D 0.543 | [1] 0.477 | SHP2 N-SH2 domain L43F 0.567 | SHP2 N-SH2 domain T42A 0.522 | SHP2 N-SH2 domain T52S 0.442 | [2] 0.537

ELSDGYWVVSN [TPP1_Y459_A454E]
inactive: SHP2 C-SH2 domain E139D 0.564 | [1] 0.805 | SHP2 N-SH2 domain L43F 0.511 | SHP2 N-SH2 domain T42A 0.55 | SHP2 N-SH2 domain T52S 0.74 | [2] 0.788

LTEEKYELKEG [TREM1_Y29]
inactive: SHP2 C-SH2 domain E139D 0.635 | [1] 0.766 | SHP2 N-SH2 domain L43F 1.28 | SHP2 N-SH2 domain T42A 0.826 | SHP2 N-SH2 domain T52S 1 | [2] 1.53

PPSGEYFGQCG [TRIP6_Y275]
inactive: SHP2 C-SH2 domain E139D 0.816 | [1] 0.965 | SHP2 N-SH2 domain L43F 0.583 | SHP2 N-SH2 domain T42A 0.6 | SHP2 N-SH2 domain T52S 0.772 | [2] 0.96

RGGWVYVLHPT [TRMT61A_Y67]
inactive: SHP2 C-SH2 domain E139D 1.07 | [1] 1.31 | SHP2 N-SH2 domain L43F 0.991 | SHP2 N-SH2 domain T42A 1.07 | SHP2 N-SH2 domain T52S 1.29 | [2] 1.33

PKSLFYLLLKL [TRPC6_Y775]
inactive: SHP2 C-SH2 domain E139D 1.22 | [1] 0.845 | SHP2 N-SH2 domain L43F 0.96 | SHP2 N-SH2 domain T42A 0.777 | SHP2 N-SH2 domain T52S 0.654 | [2] 0.95

ISSLLYELLEE [TRPC6_Y896_R895L]
inactive: SHP2 C-SH2 domain E139D 1.28 | [1] 1.09 | SHP2 N-SH2 domain L43F 1.3 | SHP2 N-SH2 domain T42A 1.31 | SHP2 N-SH2 domain T52S 1.06 | [2] 1.28

FVTSMYNEILI [TRPV1_Y310_M315I]
inactive: SHP2 C-SH2 domain E139D 2.23 | [1] 2.04 | SHP2 N-SH2 domain L43F 2.7 | SHP2 N-SH2 domain T52S 2.43 | [2] 2.05
active: SHP2 N-SH2 domain T42A 5.52

LESTLYESSVV [TRPV4_Y91]
inactive: SHP2 C-SH2 domain E139D 0.814 | [1] 0.556 | SHP2 N-SH2 domain L43F 0.748 | SHP2 N-SH2 domain T42A 0.793 | SHP2 N-SH2 domain T52S 0.681 | [2] 0.648

LESILYESSVV [TRPV4_Y91_T89I]
inactive: SHP2 C-SH2 domain E139D 1.38 | [1] 1.14 | SHP2 N-SH2 domain L43F 1.23 | SHP2 N-SH2 domain T42A 0.899 | SHP2 N-SH2 domain T52S 1.16 | [2] 0.96

PCNLIYFGEHP [TRPV6_Y201]
inactive: SHP2 C-SH2 domain E139D 0.728 | [1] 0.815 | SHP2 N-SH2 domain L43F 0.972 | SHP2 N-SH2 domain T42A 0.723 | SHP2 N-SH2 domain T52S 0.913 | [2] 0.735

GSQERYFELVE [TSC2_Y407]
inactive: SHP2 C-SH2 domain E139D 0.863 | [1] 0.845 | SHP2 N-SH2 domain L43F 0.835 | SHP2 N-SH2 domain T42A 0.641 | SHP2 N-SH2 domain T52S 0.775 | [2] 0.98

ARMTNYGLPRY [TSPAN12_Y138]
inactive: SHP2 C-SH2 domain E139D 0.529 | [1] 0.496 | SHP2 N-SH2 domain L43F 0.616 | SHP2 N-SH2 domain T42A 0.449 | SHP2 N-SH2 domain T52S 0.623 | [2] 0.632

DTMQTYNGNDE [TSPAN7_Y131_A127T]
inactive: SHP2 C-SH2 domain E139D 0.531 | [1] 0.501 | SHP2 N-SH2 domain L43F 0.514 | SHP2 N-SH2 domain T42A 0.452 | SHP2 N-SH2 domain T52S 0.328 | [2] 0.393

SEDANYKRVSC [TTC3_Y1288]
inactive: SHP2 C-SH2 domain E139D 0.611 | [1] 0.734 | SHP2 N-SH2 domain L43F 0.609 | SHP2 N-SH2 domain T42A 0.482 | SHP2 N-SH2 domain T52S 0.639 | [2] 0.775

SLESAYPEVSQ [TTF1_Y357_G360V]
inactive: SHP2 C-SH2 domain E139D 0.528 | [1] 0.517 | SHP2 N-SH2 domain L43F 0.549 | SHP2 N-SH2 domain T42A 0.527 | SHP2 N-SH2 domain T52S 0.5 | [2] 0.367

DSEIRYLSADS [TTF1_Y476]
inactive: SHP2 C-SH2 domain E139D 0.518 | [1] 0.538 | SHP2 N-SH2 domain L43F 0.684 | SHP2 N-SH2 domain T42A 0.585 | SHP2 N-SH2 domain T52S 0.547 | [2] 0.593

LHAALYERKLL [TTLL5_Y542]
inactive: SHP2 C-SH2 domain E139D 0.947 | [1] 0.675 | SHP2 N-SH2 domain L43F 0.88 | SHP2 N-SH2 domain T42A 0.98 | SHP2 N-SH2 domain T52S 1 | [2] 1.17

IETGKYEILTE [TTN_Y13435_R13434K]
inactive: SHP2 C-SH2 domain E139D 0.69 | [1] 0.681 | SHP2 N-SH2 domain L43F 0.632 | SHP2 N-SH2 domain T42A 0.768 | SHP2 N-SH2 domain T52S 0.601 | [2] 0.932

ANVKWYRNGRE [TTN_Y13783]
inactive: SHP2 C-SH2 domain E139D 0.39 | [1] 0.384 | SHP2 N-SH2 domain L43F 0.368 | SHP2 N-SH2 domain T42A 0.401 | SHP2 N-SH2 domain T52S 0.25 | [2] 0.29

VHVEVYDPPSP [TTN_Y16422_R16424P]
inactive: SHP2 C-SH2 domain E139D 0.951 | [1] 1.03 | SHP2 N-SH2 domain L43F 1.05 | SHP2 N-SH2 domain T42A 0.909 | SHP2 N-SH2 domain T52S 1.39 | [2] 1.1

LANNEYYFRVC [TTN_Y18997]
inactive: SHP2 C-SH2 domain E139D 0.687 | [1] 1.07 | SHP2 N-SH2 domain L43F 0.752 | SHP2 N-SH2 domain T42A 0.633 | SHP2 N-SH2 domain T52S 0.638 | [2] 1.26

GFIISYREEEQ [TTN_Y19764_T19762I_YF]
inactive: SHP2 C-SH2 domain E139D 1.44 | [1] 0.965 | SHP2 N-SH2 domain L43F 1.35 | SHP2 N-SH2 domain T42A 1.06 | SHP2 N-SH2 domain T52S 1.43 | [2] 1.06

VRLTEYPCAGL [TTN_Y20078_S20075L]
inactive: SHP2 C-SH2 domain E139D 0.804 | [1] 0.804 | SHP2 N-SH2 domain L43F 0.804 | SHP2 N-SH2 domain T42A 0.672 | SHP2 N-SH2 domain T52S 0.78 | [2] 0.892

IPQEEYTATGL [TTN_Y20178]
inactive: SHP2 C-SH2 domain E139D 0.814 | [1] 0.675 | SHP2 N-SH2 domain L43F 0.697 | SHP2 N-SH2 domain T42A 0.723 | SHP2 N-SH2 domain T52S 0.936 | [2] 0.879

KINKMYSDRAM [TTN_Y20328]
inactive: SHP2 C-SH2 domain E139D 0.66 | [1] 0.583 | SHP2 N-SH2 domain L43F 0.513 | SHP2 N-SH2 domain T42A 0.609 | SHP2 N-SH2 domain T52S 0.578 | [2] 0.741

SKDSAYVTWEP [TTN_Y20731]
inactive: SHP2 C-SH2 domain E139D 0.765 | [1] 0.637 | SHP2 N-SH2 domain L43F 0.71 | SHP2 N-SH2 domain T42A 0.622 | SHP2 N-SH2 domain T52S 0.667 | [2] 0.835

WAKPEYTGGFK [TTN_Y22309]
inactive: SHP2 C-SH2 domain E139D 0.869 | [1] 1.16 | SHP2 N-SH2 domain L43F 0.925 | SHP2 N-SH2 domain T42A 0.97 | SHP2 N-SH2 domain T52S 1.23 | [2] 1.26

WANPEYTGGFK [TTN_Y22309_K22306N]
inactive: SHP2 C-SH2 domain E139D 0.946 | [1] 1.09 | SHP2 N-SH2 domain L43F 1.03 | SHP2 N-SH2 domain T42A 0.844 | SHP2 N-SH2 domain T52S 0.683 | [2] 1.07

KACNPYKPPGP [TTN_Y25826_T25821K]
inactive: SHP2 C-SH2 domain E139D 0.925 | [1] 0.845 | SHP2 N-SH2 domain L43F 0.822 | SHP2 N-SH2 domain T42A 0.707 | SHP2 N-SH2 domain T52S 0.718 | [2] 0.926

VCDALYPPGPP [TTN_Y25928_A25923V]
inactive: SHP2 C-SH2 domain E139D 0.927 | [1] 0.921 | SHP2 N-SH2 domain L43F 0.729 | SHP2 N-SH2 domain T42A 0.625 | SHP2 N-SH2 domain T52S 0.747 | [2] 0.943

KPGVNYYFQVS [TTN_Y28165_R28168Q]
inactive: SHP2 C-SH2 domain E139D 1.11 | [1] 1.43 | SHP2 N-SH2 domain L43F 1.1 | SHP2 N-SH2 domain T42A 0.986 | SHP2 N-SH2 domain T52S 1.14 | [2] 1.04

PGVNYYFQVSA [TTN_Y28166_R28168Q]
inactive: SHP2 C-SH2 domain E139D 1.26 | [1] 1.55 | SHP2 N-SH2 domain L43F 1.37 | SHP2 N-SH2 domain T42A 1.13 | SHP2 N-SH2 domain T52S 1.12 | [2] 1.45

TENAGYYFQVS [TTN_Y31721_R31724Q]
inactive: SHP2 C-SH2 domain E139D 0.744 | [1] 0.996 | SHP2 N-SH2 domain L43F 0.616 | SHP2 N-SH2 domain T42A 0.963 | SHP2 N-SH2 domain T52S 0.761 | [2] 1.17

TENAGYYFRIS [TTN_Y31721_V31725I]
inactive: SHP2 C-SH2 domain E139D 0.886 | [1] 0.919 | SHP2 N-SH2 domain L43F 0.755 | SHP2 N-SH2 domain T42A 0.717 | SHP2 N-SH2 domain T52S 0.636 | [2] 0.849

TENAGYFFRVS [TTN_Y31721_YF]
inactive: SHP2 C-SH2 domain E139D 0.753 | [1] 0.585 | SHP2 N-SH2 domain L43F 0.605 | SHP2 N-SH2 domain T42A 0.586 | SHP2 N-SH2 domain T52S 0.799 | [2] 0.769
